Measurements taken from article PMC2173995 (The Journal of Cell Biology, 2002).

Biological target: the molecule itself
Experiment: negative-stain electron microscopy with single-particle image averaging

B1: Mouse myosin V HMM heavy chain (residues 1-1,091) (domain or fragment)
chain: not shown
- stoichiometry N: 2
